Data reported in the supplement of paper PMC4967469.
IC50 is the fitted dose that halves viability relative to control wells, and lower means more sensitive; fits outside the tested doses are given as limits. The AUC spans the tested range (256-fold, ending at the top dose) of the same fit; the more sensitive the line, the further below 1. For some assays here: An inferred top dose comes from the curve model; the source does not state it. For some assays here: An entry number marks a drug with two screens in the source, which often give different values.

Experiments:
[1] = compound: C=CCc1cccc(/C=N/NC(=O)CN2CCN(Cc3ccccc3)CC2)c1O [PAC-1]; experiment: Viability of human cancer cell lines after 72 h of drug (GDSC screen); conditions: top dose 2.56 µM
Experimental: (§1)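 Human cancer cell lines in 384-well plates, medium with 10% serum, drug for 72 h over a 256-fold dose range (nine 2-fold or five 4-fold steps up to the top dose). Adherent lines were fixed and stained with the nucleic acid dye Syto60, suspension lines read with resazurin; signal relative to control wells, capped at 0 and 100%. One two-parameter sigmoid per drug and line, fitted in a mixed model over all curves with the slope shared within a line.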

[2] = compound: NC(=O)[C@@H](CCC(F)(F)F)N(Cc1ccc(-c2ncon2)cc1F)S(=O)(=O)c1ccc(Cl)cc1 [BMS-708163]; experiment: as above; conditions: top dose 5 µM; screen: GDSC drug entry 1072; top dose inferred
Experimental: as §1

Cell Line | AUC [1] | IC50 [1] [nM] | AUC [2] | IC50 [2] [nM]
CHSA8926 (chondrosarcoma, adherent) | 0.911 | > 2560 | 0.964 | > 5000
COLO-205 (large intestine, suspension) | 0.852 | 1940 | 0.985 | > 5000
COLO-678 (large intestine, semi-adherent) | 0.978 | > 2560 | 0.983 | > 5000
COLO-679 (melanoma, adherent) | 0.74 | 857 | 0.971 | > 5000
COLO-680N (oesophagus, adherent) | 0.895 | > 2560 | 0.975 | > 5000
COLO-783 (melanoma, adherent) | 0.967 | > 2560 | 0.988 | > 5000
COR-L23 (large cell lung carcinoma, adherent) | 0.944 | > 2560 | 0.914 | > 5000
COR-L105 (lung adenocarcinoma, adherent) | 0.861 | > 2560 | 0.857 | > 5000
CP50-MEL-B (melanoma, adherent) | 0.982 | > 2560 | 0.988 | > 5000
CS1 (bone, adherent) | 0.96 | > 2560 | 0.926 | > 5000
Ca9-22 (head and neck, adherent) | 0.981 | > 2560 | 0.935 | > 5000
Ca-Ski (cervix, adherent) | 0.934 | > 2560 | 0.959 | > 5000
CaR-1 (large intestine, adherent) | 0.978 | > 2560 | 0.906 | > 5000
Calu-3 (lung adenocarcinoma, adherent) | 0.799 | 1610 | 0.936 | > 5000
Caov-4 (ovary, adherent) | 0.887 | > 2560 | 0.942 | > 5000
Capan-2 (pancreas, adherent) | 0.879 | > 2560 | 0.972 | > 5000
ChaGo-K-1 (non-small cell lung carcinoma, adherent) | 0.934 | > 2560 | 0.985 | > 5000
DAN-G (pancreas, adherent) | 0.991 | > 2560 | 0.992 | > 5000
DBTRG-05MG (glioma, adherent) | 0.963 | > 2560 | 0.941 | > 5000
DK-MG (glioma, adherent) | 0.957 | > 2560 | 0.927 | > 5000
DMS-53 (small cell lung carcinoma, adherent) | 0.981 | > 2560 | 0.913 | > 5000
DMS-273 (small cell lung carcinoma, adherent) | 0.976 | > 2560 | 0.985 | > 5000
DOK (head and neck, adherent) | 0.96 | > 2560 | 0.913 | > 5000
DU-145 (prostate, adherent) | 0.982 | > 2560 | 0.973 | > 5000
Daoy (medulloblastoma, adherent) | 0.835 | 1470 | 0.988 | > 5000

Cell Line | AUC [1] | IC50 [1] [nM] | AUC [2] | IC50 [2] [nM]
Detroit562 (head and neck, adherent) | 0.988 | > 2560 | 0.942 | > 5000
DoTc2-4510 (cervix, adherent) | 0.938 | > 2560 | 0.988 | > 5000
EBC-1 (lung squamous cell carcinoma, adherent) | 0.978 | > 2560 | 0.954 | > 5000
ECC10 (stomach, suspension) | 0.833 | 1760 | 0.98 | > 5000
EFM-19 (breast, adherent) | 0.771 | 1540 | 0.972 | > 5000
EFM-192A (breast, adherent) | 0.963 | > 2560 | 0.974 | > 5000
EFO-21 (ovary, adherent) | 0.904 | > 2560 | 0.964 | > 5000
EFO-27 (ovary, adherent) | 0.882 | > 2560 | 0.959 | > 5000
EGI-1 (biliary tract, adherent) | 0.971 | > 2560 | 0.953 | > 5000
EHEB (lymphoid neoplasm, suspension) | 0.805 | 2080 | 0.954 | > 5000
EN (endometrium, adherent) | 0.977 | > 2560 | 0.977 | > 5000
EPLC-272H (lung squamous cell carcinoma, adherent) | 0.956 | > 2560 | 0.943 | > 5000
ESS-1 (endometrium, adherent) | 0.944 | > 2560 | 0.972 | > 5000
EW-7 (Ewing sarcoma, semi-adherent) | 0.9 | > 2560 | 0.989 | > 5000
FADU (head and neck, adherent) | 0.988 | > 2560 | 0.982 | > 5000
FTC-133 (thyroid, adherent) | 0.984 | > 2560 | 0.932 | > 5000
FU97 (stomach, adherent) | 0.954 | > 2560 | 0.972 | > 5000
FU-OV-1 (ovary, adherent) | 0.971 | > 2560 | 0.947 | > 5000
G-292 Clone A141B1 (osteosarcoma, adherent) | 0.943 | > 2560 | 0.968 | > 5000
G-361 (melanoma, adherent) | 0.8 | 1180 | 0.953 | > 5000
G-401 (kidney, adherent) | 0.751 | 915 | 0.941 | > 5000
G-402 (soft tissue, adherent) | 0.934 | > 2560 | 0.939 | > 5000
GAMG (glioma, adherent) | 0.978 | > 2560 | 0.917 | > 5000
GCT (soft tissue, adherent) | 0.982 | > 2560 | 0.989 | > 5000
GMS-10 (glioma, adherent) | 0.988 | > 2560 | 0.943 | > 5000

Cell Line | AUC [1] | IC50 [1] [nM] | AUC [2] | IC50 [2] [nM]
GP5d (large intestine, adherent) | 0.989 | > 2560 | 0.991 | > 5000
H4 (glioma, adherent) | 0.965 | > 2560 | 0.986 | > 5000
H290 (mesothelioma, adherent) | 0.916 | > 2560 | 0.979 | > 5000
H2369 (mesothelioma, adherent) | 0.956 | > 2560 | 0.987 | > 5000
H2373 (mesothelioma, adherent) | 0.974 | > 2560 | 0.983 | > 5000
H2461 (mesothelioma, adherent) | 0.978 | > 2560 | 0.974 | > 5000
H2591 (mesothelioma, adherent) | 0.958 | > 2560 | 0.972 | > 5000
H2595 (mesothelioma, adherent) | 0.928 | > 2560 | 0.98 | > 5000
H2722 (mesothelioma, adherent) | 0.939 | > 2560 | 0.92 | > 5000
H2731 (mesothelioma, adherent) | 0.984 | > 2560 | 0.977 | > 5000
H2795 (mesothelioma, adherent) | 0.975 | > 2560 | 0.983 | > 5000
H2803 (mesothelioma, adherent) | 0.921 | > 2560 | 0.982 | > 5000
H2804 (mesothelioma, adherent) | 0.92 | > 2560 | 0.982 | > 5000
H2818 (mesothelioma, adherent) | 0.95 | > 2560 | 0.954 | > 5000
H2869 (mesothelioma, adherent) | 0.942 | > 2560 | 0.984 | > 5000
H3118 (head and neck, adherent) | 0.832 | 1850 | 0.983 | > 5000
H3255 (lung adenocarcinoma, adherent) | 0.937 | > 2560 | 0.938 | > 5000
HARA (lung squamous cell carcinoma, adherent) | 0.95 | > 2560 | 0.961 | > 5000
HCC38 (breast, adherent) | 0.889 | > 2560 | 0.899 | > 5000
HCC70 (breast, adherent) | 0.988 | > 2560 | 0.953 | > 5000
HCC202 (breast, adherent) | 0.715 | 842 | 0.969 | > 5000
HCC1143 (breast, adherent) | 0.877 | > 2560 | 0.955 | > 5000
HCC1395 (breast, adherent) | 0.914 | > 2560 | 0.977 | > 5000
HCC1419 (breast, adherent) | 0.875 | > 2560 | 0.926 | > 5000
HCC1428 (breast, adherent) | 0.977 | > 2560 | 0.985 | > 5000

Cell Line | AUC [1] | IC50 [1] [nM] | AUC [2] | IC50 [2] [nM]
HCC1569 (breast, adherent) | 0.872 | > 2560 | 0.914 | > 5000
HCC1806 (breast, adherent) | 0.976 | > 2560 | 0.989 | > 5000
HCC1937 (breast, adherent) | 0.981 | > 2560 | 0.955 | > 5000
HCC1954 (breast, adherent) | 0.875 | > 2560 | 0.956 | > 5000
HCC-15 (lung squamous cell carcinoma, adherent) | 0.982 | > 2560 | 0.979 | > 5000
HCC-44 (lung adenocarcinoma, adherent) | 0.85 | 1870 | 0.986 | > 5000
HCC-56 (large intestine, adherent) | 0.946 | > 2560 | 0.981 | > 5000
HCC-827 (lung adenocarcinoma, adherent) | 0.984 | > 2560 | 0.967 | > 5000
HCT-15 (large intestine, adherent) | 0.827 | 1700 | 0.967 | > 5000
HCT-116 (large intestine, adherent) | 0.984 | > 2560 | 0.907 | > 5000
HDQ-P1 (breast, adherent) | 0.864 | > 2560 | 0.972 | > 5000
HEC-1 (endometrium, adherent) | 0.985 | > 2560 | 0.951 | > 5000
HGC-27 (stomach, adherent) | 0.976 | > 2560 | 0.973 | > 5000
HLE (liver, adherent) | 0.902 | > 2560 | 0.974 | > 5000
HMV-II (melanoma, adherent) | 0.854 | > 2560 | 0.982 | > 5000
HN (head and neck, adherent) | 0.985 | > 2560 | 0.981 | > 5000
HO-1-N-1 (head and neck, adherent) | 0.976 | > 2560 | 0.98 | > 5000
HO-1-u-1 (head and neck, adherent) | 0.967 | > 2560 | 0.979 | > 5000
HOP-92 (large cell lung carcinoma, adherent) | 0.973 | > 2560 | 0.981 | > 5000
HOS (osteosarcoma, adherent) | 0.884 | 1980 | 0.991 | > 5000
HPAC (pancreas, adherent) | 0.859 | > 2560 | 0.813 | 4200
HPAF-II (pancreas, adherent) | 0.98 | > 2560 | 0.894 | > 5000
HSC-2 (head and neck, adherent) | 0.97 | > 2560 | 0.923 | > 5000
